The supplement of paper PMC10326071
Some of the results follow. Single values are uncertain, as repeats are few or missing.

How the values were obtained:
[1] = test system: SARS-CoV-2 nsp3 SARS-unique domain core (SUD-core, nsp3 residues 413-676); assay: dissociation rate constant koff (BLI); higher = faster dissociation; details: 100 µM; 25 °C
[2] = test system: SARS-CoV-2 nsp3 SARS-unique domain core (SUD-core, nsp3 residues 413-676); assay: apparent dissociation constant Kd (single-concentration BLI fit); higher = weaker binding; details: 100 µM; 25 °C

Compound	dissociation rate constant koff [1] [s⁻¹]	apparent dissociation constant Kd [2] [µM]
C=CC(=O)N1C[C@H](Nc2ncnc3[nH]ccc23)CC[C@@H]1C	0.718	315
COc1c(Nc2ncc(Cl)c(N[C@H]3[C@@H](C(N)=O)[C@@H]4C=C[C@H]3C4)n2)ccc2c1CC[C@@H](N1CCOCC1)CC2	0.0466	125
OC[C@H]1O[C@@H](n2cnc3c(NC4CCCC4)ncnc32)[C@H](O)[C@@H]1O	0.256	816
Nc1n[nH]c2nnc(-c3c(-c4ccccc4)nn4ccccc34)cc12	0.0122	46.3
CN(c1ccc(NC(=O)Nc2ccc(OC(F)(F)F)cc2)cc1)c1ccnc(Nc2cccc(S(N)(=O)=O)c2)n1	0.0132	233
Clc1ccc(C(c2ccc(Cl)cc2)n2cc[n+](CC(OCc3ccc(Cl)cc3Cl)c3ccc(Cl)cc3Cl)c2)cc1 (configuration not stated)	0.00884	7330
CC(C)(C)Cn1c(N)nc2ccc(-c3[nH]c(C(C)(C)C)nc3-c3ccc(F)cc3)nc21	0.365	3620
COc1ccc(Br)c(C=O)c1O	16.3	60.1
C[C@@]1(O)[C@H](O)[C@@H](CO)O[C@H]1n1ccc(N)nc1=O	0.0351	330
O=c1ccn([C@H]2C[C@H](O)[C@@H](COP(=O)(O)OP(=O)(O)OP(=O)(O)O)O2)c(=O)[nH]1	0.0195	37.5
NC(=O)c1c(OCc2c(F)cc(Br)cc2F)nsc1NC(=O)NCCCCN1CCCC1	0.329	3440
O=c1ccoc2cc(O)ccc12	0.0395	31100
C=CC(=O)N1CCC(Oc2cc3c(Nc4ccc(Cl)c(Cl)c4F)ncnc3cc2OC)CC1	0.12	1560
Cc1cn([C@H]2C[C@H](F)[C@@H](CO)O2)c(=O)[nH]c1=O	0.0265	103
C[C@H](NC(=O)[C@H]1NCC[C@@H]1O)c1ccc(-c2noc(CCC3CCCC3)n2)cc1	0.532	260
CC(C)(O)c1cc2nc(-c3cnc(N)nc3)nc(N3CCOCC3)c2s1	0.226	342
